From PubChem BioAssay AID1347428 (National Center for Advancing Translational Sciences (NCATS), 2020)
The campaign covered roughly 91,000 compounds. About 290 (0.32%) were called active. Inconclusive means that the source gave no clear call. Such entries were picked first, then a sample of the others. The call rests on the fitted dose curve; in most records, active means well fitted inhibition curve with a large enough effect; inconclusive means small, poorly fitted or top-dose-only effect; inactive means no such curve, though single readings can be large or run the other way. Where the call is inconclusive, the potency comes from a doubtful curve fit.

Target: Single-stranded DNA cytosine deaminase (Homo sapiens) (UniProt Q9GZX7)
UniProt Q9GZX7, sequence (Q9GZX7 whole entry, looked up): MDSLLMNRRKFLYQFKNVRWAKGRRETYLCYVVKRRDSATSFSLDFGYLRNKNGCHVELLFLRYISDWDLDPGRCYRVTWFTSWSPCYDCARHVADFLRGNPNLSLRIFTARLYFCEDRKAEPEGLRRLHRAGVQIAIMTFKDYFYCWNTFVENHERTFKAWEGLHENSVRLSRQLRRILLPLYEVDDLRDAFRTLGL
Experiment: Primary qHTS assay for inhibitors of Activation Induced Cytidine Deaminase (AID): AID signal; further: nearly all actives have a fitted effect of over 25% in size
Conditions: AID deamination FRET fluorescence, UDG-coupled, 4 h; series mostly up to 115 µM
Source text: Assay Provider (PI) Patricia Gearhart Ph.D.
National Institute on Aging
National Institute of Health (NIH), Bethesda, MD
Assay Provider (PI) Rahul Kohli Ph.D.
Perelman School of Medicine
University of Pennsylvania, Philadelphia, PA
Activation-Induced Deaminase (AID) is a cytosine deaminase which converts cytosine into uracil within stretches of ssDNA. The presence of uracil in DNA initiates a cascade of mutagenic DNA repair to introduce point mutations and DNA double strand breaks. Specific targeting of AID to the immunoglobulin heavy chain loci (Igh) promotes mutagenesis in the antibody variable region for somatic hypermutation (SHM) or switch regions leading to class switch recombination (CSR). However, AID also plays a role in accumulating unnecessary mutations across the genome. Mis-targeting of AID results in the initiation of tumor development and leads to greater drug resistance among cancer cells when continually expressed. To identify an AID inhibitor, a small molecule library will be screened in collaboration with NCATS core facility at NIH. To confirm biological function, inhibitors will be examined in an in vitro murine B-cell activation assay and subsequent secondary validation screens. Top molecules will be further screened to identify inhibitory efficacy against a wild type primary splenocytes assay. Using these approaches, we hope to identify a small molecule with great efficacy and low toxicity for use as a molecular probe to further characterize AID's intricacies, or even as a therapeutic.
A FRET based analysis of cytosine deamination, was developed to identify potential inhibitors of AID catalytic activity. This screen has two signal output, Read 1 evaluates the AID inhibition response. The second readout (Read 2) evaluates UDG response and is uses as a counterscreen to exclude false positive inhibitors. Inhibition in AID and inactivity in the UDG signal is the desired outcome for this assay.
SEQUENCE No. (e.g., 1, 2, 3, etc.); […] (e.g., Cells, Incubation, Reagent, etc.); VALUE; DESCRIPTION
1a; Reagent; 3 uL; [4/3x] 1 uM AID/2.67 U/mL UDG
1b; Reagent; 3 uL; 2 U/mL UDG
1c; Reagent; 3 uL; 1 uM AID
2a; Compound; 46 nL; Follow-up plates (0.64 uM - 10 mM)
2b; Control; 46 nL; ATA ([…] - 10 mM)
3; Time; 10 min; incubation at room temperature
5; Time; 4 hr; incubation at room temperature
6; Reagent; 4 uL; [2x] 250 mM NaOH
7; Time; 15 sec; centrifuge at 1000 rpm
8; Time; 30 min; incubation at room temperature
9a; Detection; fluorescence (Read 1: AID); EnVision (PerkinElmer) plate reader, 540 excitation and 590 emission filters
9b; Detection; fluorescence (Read 2: UDG); EnVision (PerkinElmer) plate reader, 560 excitation and 665 emission filters
NOTES (numbers refer to sequence above)
1a; Reagents were dispensed in a medium-binding black solid-bottom Greiner plates (789176F) using a BioRptr liquid dispenser. Dispense 3 uL of [4/3x] 1 uM AID (provided by Kohli lab) and [4/3x] 2 U/mL UDG (NEB M0280L) into columns 1, 2, 5 to 48.
1b; Dispense 3 uL of [4/3x] 2 U/mL UDG into column 3.
1c; Dispense 3 uL of [4/3x] 1 uM AID into column 4.
2a; Compound (7-points [uM] (0.64; 3.2; 16; 80; 400; 2,000; 10,000; 20,000) double pin-transferred (Dip Factor = 2) using the Kalypsys (Wako USA) pintool equipped with a 1536 pinhead for a final concentration range of 7.32 nM - 114 uM.
2b; 10 mM Aurintricarboxylic Acid (Sigma A1895) (ATA, 8-point, n = 2, 1:2.5 dilution in column 2) double pin-transferred (Dip Factor = 2) using the Kalypsys (Wako USA) pintool equipped with a 1536 pinhead for a [final] range of 186 nM - 114 uM.
3; Room temperature incubation.
4; Dispense 1 uL of substrate mixture from the Kohli lab [4x] […] DJC20 and [4x] 250 nM DJC23 into columns 1 to 48 .
5; Room temperature incubation.
6; Dispense 4 uL of substrate mixture [2x] 250 mM NaOH into columns 1 to 48.
7; Centrifugation step to remove bubbles.
8; Room temperature incubation
9a; Fluorescence signal (column label AID) was read using the EnVision plate reader. […]
Potency means the concentration at half of the fitted maximal effect; tags describe the fitted curve by direction and shape.

Row | SMILES | Potency
1 | Cc1noc2ncnc(NCCc3ccccc3)c12 | inconclusive: 70.8 µM [inhibitor, partial curve, poor fit]
2 | COCCCNC(=O)C1CCN(Cc2cc3ccccc3n2Cc2cccc(Cl)c2)CC1 | inconclusive: 14.1 µM [inhibitor, partial curve, poor fit]
3 | Cc1c(C(=O)N(C)Cc2ccccc2)sc2nc(-c3ccc(F)cc3)cn12 | inconclusive: 39.8 µM [inhibitor, full curve, poor fit]
4 | CCN(CC)c1ccc(/C=N/S(=O)(=O)c2cccs2)cc1 | inconclusive: 50.1 µM [inhibitor, partial curve, poor fit]
5 | Cc1nn(C)c2c1c(-c1ccccc1)cc(=O)n2Cc1ccc(F)cc1Cl | inconclusive: 44.7 µM [inhibitor, full curve, poor fit]
6 | COc1ccc(CCNC(=O)CCCn2c(=O)c3ccccc3n(CC(=O)Nc3cccc(C)c3)c2=O)cc1OC | inconclusive: 3.55 µM [inhibitor, full curve, poor fit]
7 | CCOc1cc(C(=O)N(Cc2nc(-c3ccc(C)cc3)no2)C(C)C)cc(OCC)c1OCC | inconclusive: 25.1 µM [inhibitor, full curve]
8 | CCCCNC(=S)NN=C1CCCCCC1 | inactive
9 | Cc1oc(-c2ccccc2)nc1Cn1c(SCc2cccc(C(F)(F)F)c2)nc2cccnc21 | inconclusive: 17.8 µM [inhibitor, partial curve, poor fit]
10 | CCOc1ccc(-c2c(C)nn3c(C)c(C(=O)NCc4cccc(OC)c4)cnc23)cc1OCC | inconclusive: 100 µM [inhibitor, single point]
11 | Cc1ccc2c(=O)cc(C(=O)N3CCC(Cc4ccccc4)CC3)oc2c1 | inconclusive: 89.1 µM [inhibitor, partial curve, poor fit]
12 | Cc1ccc(Nc2nc(CN3CCN(S(=O)(=O)c4ccccc4C(F)(F)F)CC3)cs2)cc1 | inconclusive: 28.2 µM [inhibitor, partial curve, poor fit]
13 | CCOC(=O)C1CCN(C(=O)COC(=O)c2cn(-c3ccccc3)nc2-c2ccc(Cl)cc2)CC1 | inactive
14 | COc1ccc(Nc2cc(C(=O)NCCCN(C)Cc3ccccc3)c3ccccc3n2)c(OC)c1 | inactive
15 | COc1ccccc1C(=O)Nc1ccc(NC(=O)c2cccs2)cc1 | inconclusive: 10 µM [inhibitor, full curve, poor fit]
16 | COc1ccc(OC)c(C2c3c(-c4ccc(Br)cc4)n[nH]c3C(=O)N2c2ccc(Cl)cc2)c1 (stereo unspecified) | inconclusive: 79.4 µM [inhibitor, single point]
